The whole screen tested about 46,000 compounds, of which about 60 (0.1%) were called active. Inconclusive results (about 3%) are left out. Calls come from the whole dose curve; as a rule, active = well fitted inhibition curve with a large enough effect; inconclusive = small, poorly fitted or top-dose-only effect; inactive = no such curve, though single readings can be large or run the other way. This is one part of the list.
Assay: Primary qHTS assay for Inhibitors of ovarian cancer metastasis using an organotypic tumor microenvironment (TME) model.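 For activity change, negative = inhibition: plate controls were DMSO wells for no effect and tomatine positive control wells for full effect.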 Note: nearly all actives have a fitted effect of over 65% in size.
Details: SKOV3ip1-GFP adhesion/invasion on 3D omental model, fluorescence; series mostly up to 45.8 µM; activity change, negative = inhibition: at the top concentration
Summary of the method: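 Primary human omental fibroblast/mesothelial 3D culture pre-formed 48 h. SKOV3ip1-GFP cells added with compounds (0.36-46 umol/L), incubated 2 h RT/16 h 37 C, fixed; GFP cells quantified at 488/509 nm.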

Activity change, negative = inhibition, inactive:
Cc1ccc(N2CCN(S(=O)(=O)c3nnc(NC(=O)c4ccc(C(C)C)cc4)s3)CC2)cc1 5.87%
Cc1ccc(-c2nc(S(=O)(=O)c3ccc(C)cc3)c(N3CCCCCC3)o2)cc1 -21.8%
COc1ccc(CNC(=O)C2CCC(CNS(=O)(=O)c3cccs3)CC2)cc1 (stereo not given) -0.471%
CCOC(=O)c1ccccc1NC(=O)CSc1cn(CC(=O)N2CCOCC2)c2ccccc12 -14.4%
CCOc1ccc(Nc2nc(C)c(NC(=O)c3cccc(OC)c3)c(Nc3ccc(OCC)cc3)n2)cc1 -17.3%
Cc1ccccc1CSc1nc2cccnc2n1Cc1ccc(C(=O)NC2CC2)cc1 -2.72%
COC(=O)C1=C(c2ccccc2)c2ccccc2S(=O)(=O)N1CC(=O)Nc1ccc(OC)cc1OC -3.38%
Cc1cc(=O)[nH]c2nnc(SCc3ccc(Cl)cc3)n12 -3.37%
CCOc1ccc(NC(=O)CN2C(C(=O)OC)=C(c3ccccc3)c3cc(Cl)ccc3S2(=O)=O)cc1 -2.15%
COc1ccccc1-c1cc(NC(=O)COc2ccc(C)c(C)c2)n(-c2ccccc2)n1 -2.44%
COc1ccccc1NC(=O)C1CCN(S(=O)(=O)c2cn(C)cn2)CC1 -6.88%
Cc1cccc(N(C)S(=O)(=O)c2c(C(=O)N3CCCCCC3)c(C)n(C)c2C)c1 11.5%
Cc1cc2nc(-c3cccc(NC(=O)COc4ccc(Cl)c(C)c4)c3)oc2cc1C -1.19%
COc1ccc(NC(=O)c2c(NCc3cccc(F)c3)sc3c2CCCC3)c(OC)c1 0.0408%
Cc1ccc(CNC(=O)CN2CCN(Cc3ccc(F)cc3)C2=O)cc1 -4.87%
Cc1ccc(Cl)cc1-n1ncc2c(N3CCC(C)CC3)ncnc21 11.2%
Cc1cccc2c1-c1sc(C(=O)N3CCN(c4cccc(Cl)c4)CC3)cc1CO2 -25.8%
CC(C)OCc1cc(CN2CCN(c3ccccc3)CC2)c(O)c2ncccc12 6.33%
COc1ccc(-c2cc(C(F)(F)F)nc(SCC(=O)NCc3ccc(Cl)cc3)n2)cc1 0.358%
CCOc1ccc(CCNC(=O)c2cnc3sc(N4CCCCCC4)nn3c2=O)cc1 10.8%
Cc1ccc(C)c(C(=O)COC(=O)CCCC(=O)Nc2cc(C(F)(F)F)ccc2Cl)c1 9.51%
Cc1cccc(CC(=O)NCCc2csc(-c3ccc(C(F)(F)F)cc3)n2)c1 2.24%
COc1ccccc1CNC(=O)C(CC(C)C)N1Cc2ccccc2C1=O (stereo not given) 5.86%
O=C(CSc1nccn1Cc1ccc(Cl)cc1)NCc1ccccc1 -7.34%
CCOc1ccccc1NC(=O)CSC1=Nc2ccccc2C2=NC(CC(=O)NC3CCCCC3)C(=O)N12 (stereo not given) 8.73%
CCC(=O)Nc1nnc(S(=O)(=O)N(C)Cc2ccc(Cl)cc2)s1 9%
O=S1(=O)c2ccccc2N(Cc2ccc(Cl)cc2F)c2ccccc21 -1.18%
COc1ccc(OC)c(NC(=O)CSC2=Nc3ccccc3C3=NC(CCC(=O)NCc4ccco4)C(=O)N23)c1 (stereo not given) 3.96%
CCC(Sc1nc2cc(OC)c(OC)cc2c(=O)n1Cc1ccc(Cl)cc1)C(=O)NCCOC (stereo not given) -4.38%
CCC(CC)C(=O)Nc1c(C(=O)N2CCN(c3ccccc3F)CC2)oc2ccccc12 -27.1%
CCOc1ccc(-c2nc3c(c(SCC(=O)N4CCCCC4)n2)Cc2cc(C)ccc2O3)cc1 2.95%
COc1ccc(CCNC(=O)CN(c2ccc(C)cc2)S(=O)(=O)c2ccc(OC)cc2)cc1 23.3%
Brc1ccc(-c2ccc(CNCCSc3nnnn3-c3ccccc3)o2)cc1 -0.82%
Cc1ccc(-c2nnc(SCCOc3ccccc3)o2)cc1 -15.9%
COc1ccccc1N1CCN(c2ccc3cc(S(=O)(=O)N4CCCCC4)ccc3n2)CC1 -6.29%
Cc1cc(C)cc(Oc2c(C(F)(F)F)oc3c(CN4CCCC(C)C4)c(O)ccc3c2=O)c1 (stereo not given) -5.01%
c1ccc(-c2cn(-c3ccccc3)c3ncnc(N4CCN(c5ccccc5)CC4)c23)cc1 -15.4%
COc1ccc(OC)c(NC(=O)CSc2n[nH]c(-c3ccccc3Cl)n2)c1 -2.22%
CCC(=O)Nc1sc2c(c1C(=O)Nc1ccc(OC)cc1)CCC(C(C)(C)C)C2 (stereo not given) -9.16%
CC(=O)c1ccc(NC(=O)CSc2cn(CC(=O)N3CCCCC3)c3ccccc23)cc1 11.9%
CCc1ccc(NC(=O)C2CCN(c3nnc(-n4c(C)ccc4C)s3)CC2)cc1 -9.01%
CCOc1ccc(-c2cn(-c3ccc(OC)cc3)c(SCC(=O)Nc3ccccc3Cl)n2)cc1 3.73%
CCCC(=O)NCCc1nc2ccccc2n1Cc1c(F)cccc1Cl 8.31%
Cc1ccc(NC(=O)C2Cc3ccccc3N2C(=O)c2ccccc2)cc1Cl (stereo not given) 7.52%

outcome, inactive:
O=C(NCc1ccccc1)C1CCN(S(=O)(=O)c2ccc3[nH]c(=O)ccc3c2)CC1
COc1ccc(OC)c(NC(=O)CN2CCCN(Cc3cc(C)ccc3C)S2(=O)=O)c1
CCOC(=O)c1ccc(N2C(=O)c3n[nH]c(-c4ccco4)c3C2c2ccc(F)cc2)cc1 (stereo not given)
CC1=C(C(=O)Nc2ccc(F)cc2F)C2(CCCCCC2)OC1=O
CCOC(=O)c1ccc(NC(=O)CN(c2ccc(C)cc2)S(=O)(=O)c2ccc(OC)cc2)cc1
CN(C)S(=O)(=O)c1ccc2c(c1)c(=O)c(C(=O)N1CCN(c3cccc(Cl)c3)CC1)cn2C
Cc1cc(NC(=O)c2cccnc2)cc(-c2nc3cc(Cl)ccc3o2)c1O
CCOc1ccc(CN2C(=O)c3ccccc3Sc3ccc(C(=O)N4CCN(C)CC4)cc32)cc1
O=C(NC1CC(=O)N(c2ccccc2)C1)c1ccc(S(=O)(=O)N2CCOCC2)cc1 (stereo not given)
CC1CCN(C(=O)CSc2c3c(nc4cc(Cl)ccc24)CCCC3)CC1
COc1ccc(Br)c2c1-c1nc(NC(=O)c3cccc(C)c3)sc1C2
CCOc1ccc(-n2nc(CO)c(C(=O)NCc3ccc(Cl)cc3)n2)cc1
CCOC(=O)CC(NC(=O)c1cc2cc(Cl)ccc2oc1=O)c1ccc(C)cc1 (stereo not given)
COc1ccc(F)cc1S(=O)(=O)NCCc1csc(-c2ccc(Cl)cc2)n1
Cc1ccc(C)c(-n2nnc(-c3nc(-c4ccc(Cl)cc4)no3)c2N)c1
Cc1cc(C)c(S(=O)(=O)NCCc2cc3c(C)ccc(C)c3[nH]c2=O)c(C)c1
